Assay results published in PubChem BioAssay AID938 (National Center for Advancing Translational Sciences (NCATS), 2007).
The whole screen tested about 73,000 compounds, of which about 1,800 (2.5%) were called active. Inconclusive results, whose numbers are uncertain, are shown with a selection of clear calls. Calls follow the shape of the dose curve; as a rule, active = well fitted activation curve with a large enough effect; inconclusive = small, poorly fitted or top-dose-only effect; inactive = no such curve, though single readings can be large or run the other way. Potencies of inconclusive entries are left out as doubtful fits.

experiment: qHTS Assay for Agonists of the Thyroid Stimulating Hormone Receptor: Activators of Intracellular cAMP Concentrations in Parental HEK 293; conditions: parental HEK293 CNG cAMP sensor, membrane potential fluorescence; activation: at 57.1 µM (top of the series) unless noted; also: nearly all actives have a fitted effect of over 55% in size; as to activation: % of control where 0% means no effect
Summary of the method: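 Parental HEK 293 cells stably expressing a cAMP-gated CNG channel were loaded with membrane potential dye containing 100 uM RO 20-1724 for 60 min. Compound added for 30 min; depolarization read as fluorescence intensity at 590 nm.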
Potency is read from the fitted curve at half-maximal effect; tags tell the direction and shape of the fitted curve.

Compound	Potency	activation
CCOC(=O)C1=C(N)OC2=C(C(=O)CC(C)(C)C2)C1c1ccccc1OCC#N (configuration not stated)	inconclusive [activator, single point]	–
CC(CN1CCCCC1)OC(=O)Cc1ccc(Cl)cc1 (configuration not stated)	inconclusive [activator, partial curve]	–
Cc1ccc(OCc2nnc(SCC(=O)C(C)(C)C)n2Cc2ccco2)cc1	inconclusive [activator, partial curve]	–
COC(=O)c1ccc(Oc2cc(C)nc(-n3nc(C)cc3C)n2)cc1	active: 15.8 µM	–
CCOc1ccc(-n2c(C)nc3cc(C(=O)NCCCN4CCOCC4)ccc32)cc1	inconclusive [activator, partial curve]	–
COc1cc(C2c3c(-c4cc(Cl)c(C)cc4O)n[nH]c3C(=O)N2Cc2cccnc2)ccc1O (configuration not stated)	inconclusive [activator, single point]	–
CCN(CC)S(=O)(=O)N1CCC(C(=O)NCc2ccc(C)cc2)CC1	inconclusive [activator, single point]	–
C[C@H]1NC(=O)NC1=O	inconclusive [activator, single point]	–
COc1ccccc1-c1cc(NCc2cnc(C)cn2)ncn1	inconclusive [activator, single point]	–
CCOCCSC1=C(C#N)C(c2cccs2)C(C(C)=O)=C(C)N1 (configuration not stated)	–	inactive: 6.61%
CCCC[C@@H]1C[C@H]1C(NC(=O)c1cccnc1)c1ccc(-c2ccccc2)cc1 (some centres not stated)	inconclusive [activator, single point]	–
Cc1nc2cnc(Nc3ccccc3)nc2n(Cc2cccs2)c1=O	inconclusive [activator, full curve]	–
Cc1nc(SCCC(=O)O)c2ccccc2n1	inconclusive [activator, partial curve]	–
N#Cc1c(NC(=O)CSc2ncn(-c3ccccc3)n2)sc2c1CCCC2	–	inactive: 0.177%
Cc1ccc2oc3c(c(=O)c2c1)C(c1cccc(Cl)c1)N(CCCN1CCOCC1)C3=O (configuration not stated)	–	inactive: -2.72%
CC(=O)c1cc2c(cc1NC(=O)c1cc(C)nn1-c1ccccc1)OCO2	inconclusive [activator, full curve, poor fit]	–
CCc1nc2ccccc2n1Cc1cc(=O)n2cc(C)ccc2n1	inconclusive [activator, single point]	–
COc1cccc2sc(Nc3nnc(-c4cccs4)o3)nc12	–	inactive: -5.55%
CCN1CCC[C@@H]1CNC(=O)c1c(O)c(Cl)cc(Cl)c1OC	–	inactive: -6.34%

Compound	Potency	activation
CCC(C)(C(=O)NC1CCCCC1)N(CC1CCCO1)C(=O)c1ccccn1 (configuration not stated)	inconclusive [activator, partial curve]	–
NC(=O)c1c(NC(=O)CSc2nnc(Cc3ccccc3)n2Cc2ccco2)sc2c1CCC2	inconclusive [activator, partial curve]	–
Cc1ccc(C)c(-c2nc3cc(N)ccc3o2)c1	–	inactive: -6.87%
O=C(CSc1nnc(COc2ccc(Cl)cc2)o1)N1CCN(c2ccccc2)CC1	inconclusive [activator, partial curve]	–
COc1ccc2oc(-c3ccccc3)c(C(N)=O)c2c1	inconclusive [activator, single point]	–
Fc1ccc([C@H]2CCNC[C@H]2COc2ccc3c(c2)OCO3)cc1	–	inactive: 8.39%
COc1ccc(C(=O)NCC(c2cccnc2)N2CCN(c3ccccc3OC)CC2)cc1OC (configuration not stated)	–	inactive: 4.16%
COc1ccccc1OCC(O)Cn1nc(C)cc1C (configuration not stated)	inconclusive [activator, single point]	–
COCC1C2CC[C@H]3C(OCc4ccc(F)cc4C(F)(F)F)OC[C@]4(C)[C@H]3C2=C(CN4C(=O)OC(C)(C)C)[C@H](C)C1COC (some centres not stated)	inconclusive [activator, single point]	–
CC(=O)NC(CC(C)C)C(=O)NC(Cc1ccccc1)C(N)=O (configuration not stated)	–	inactive: -4.91%
COc1ccc(CNC(=O)CN2CCC(C(=O)c3ccc(OC)cc3)CC2)cc1	inconclusive [activator, single point]	–
COc1cc(CNc2ccc(C)c(C)c2)cc(OC)c1OC	inconclusive [activator, single point]	–
COc1ccc2c(c1)C1CC(C)(NC(=O)C1C(=O)c1ccccc1)O2 (configuration not stated)	inconclusive [activator, single point]	–
CCCOC(=O)c1ccc(Nc2cc(C)nc3ncnn23)cc1	–	inactive: 22.4%
Cc1ccc(S(=O)(=O)N(Cc2ccc(F)cc2)Cc2ccco2)cc1	inconclusive [activator, partial curve]	–
CS(=O)(=O)Nc1cccc(-c2nc(NCc3cccnc3)c3ccccc3n2)c1	–	inactive: -1.15%
c1ccc(Nc2ncnc3c2oc2ccccc23)cc1	inconclusive [activator, partial curve]	–
COC(=O)c1cc2c(=O)n3ccccc3nc2n(Cc2cccnc2)c1=N	–	inactive: -0.845%
